Laboratory results published in paper PMC4336329 (PLoS ONE, 2015).
Out of some 310,000 compounds screened, about 2,200 (0.71%) showed an effect of 50% or more. The effect is printed as a negative number. Some of the results follow. Where a SMILES comes first, the peptide text is derived from it. The star is where a group is joined. Boc = CC(C)(C)OC(=O)*

What follows are compounds tested against human ether-à-go-go-related gene (hERG) potassium channel (human, UniProt Q12809) (assay: primary screen, population patch clamp on CHO cells stably expressing hERG).
Sequence of human ether-à-go-go-related gene (hERG) potassium channel (Q12809 whole entry, looked up): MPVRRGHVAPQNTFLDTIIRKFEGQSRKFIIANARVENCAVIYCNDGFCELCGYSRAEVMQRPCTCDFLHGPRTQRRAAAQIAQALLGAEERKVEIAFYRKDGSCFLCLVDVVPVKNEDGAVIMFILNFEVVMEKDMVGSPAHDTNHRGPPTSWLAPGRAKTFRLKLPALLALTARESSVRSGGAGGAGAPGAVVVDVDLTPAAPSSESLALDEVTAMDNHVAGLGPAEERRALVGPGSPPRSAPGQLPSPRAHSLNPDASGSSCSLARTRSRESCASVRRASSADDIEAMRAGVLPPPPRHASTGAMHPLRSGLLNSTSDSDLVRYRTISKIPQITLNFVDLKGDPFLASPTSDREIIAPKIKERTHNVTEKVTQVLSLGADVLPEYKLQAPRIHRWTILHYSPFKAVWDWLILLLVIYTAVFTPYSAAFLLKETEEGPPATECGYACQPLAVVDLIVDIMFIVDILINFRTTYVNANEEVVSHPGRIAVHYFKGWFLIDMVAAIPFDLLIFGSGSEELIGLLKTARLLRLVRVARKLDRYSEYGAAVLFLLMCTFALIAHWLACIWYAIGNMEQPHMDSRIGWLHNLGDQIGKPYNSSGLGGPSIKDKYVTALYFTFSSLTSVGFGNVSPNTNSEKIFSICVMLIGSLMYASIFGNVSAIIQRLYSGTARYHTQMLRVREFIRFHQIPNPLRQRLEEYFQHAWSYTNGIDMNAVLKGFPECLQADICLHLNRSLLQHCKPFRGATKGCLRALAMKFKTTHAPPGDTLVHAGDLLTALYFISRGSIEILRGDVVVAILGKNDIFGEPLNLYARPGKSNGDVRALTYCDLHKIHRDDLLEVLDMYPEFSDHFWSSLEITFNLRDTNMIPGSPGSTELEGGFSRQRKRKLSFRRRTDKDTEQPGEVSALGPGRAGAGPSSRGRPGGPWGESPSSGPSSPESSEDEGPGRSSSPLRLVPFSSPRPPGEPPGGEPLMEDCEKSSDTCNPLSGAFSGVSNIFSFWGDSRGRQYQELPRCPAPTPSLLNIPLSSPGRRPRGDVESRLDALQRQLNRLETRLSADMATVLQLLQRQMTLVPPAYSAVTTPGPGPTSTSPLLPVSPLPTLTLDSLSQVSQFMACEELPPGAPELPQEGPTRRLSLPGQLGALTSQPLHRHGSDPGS

| SMILES | hERG current change (%, negative = inhibition) at 1uM [%] |
| --- | --- |
| Br.N=C1c2ccccc2CN1NC(=O)c1ccc(F)cc1 | 6.74 |
| O=C(NNC(=O)c1ccc2ccccc2n1)c1ccc(O)cc1 | 7.06 |
| Cc1ccc(C(=O)N2CCN(S(=O)(=O)c3ccccc3[N+](=O)[O-])CC2)o1 | 4.89 |
| COc1ccc(-c2nc(N)nc(N)n2)c(O)c1 | 10.1 |
| COc1ccc(C(=O)OC2C[C@H]3CC[C@H](C2)N3C)cc1OC.Cl (stereo partly drawn) | 11.1 |
| C/C(=N\Nc1ccc(S(N)(=O)=O)cc1[N+](=O)[O-])c1ccco1 | 10.3 |
| C=C(C)c1cccc(C(C)(C)NC(=O)NC(c2ccccc2)c2ccc(OC)cc2)c1 (stereo not drawn) | -5.4 |
| O=C(NCC1CCCO1)C1CCN(C(=O)c2ccc(Cl)cc2)CC1 (stereo not drawn) | -4.16 |
| Cc1cccc(-n2cc(CN3CCN(Cc4nccn4C)CC3)c(-c3cccc(F)c3)n2)c1 | 6.11 |
| CCC(=O)Nc1cccc(C2=NOC3(C2)C[C@@H](C(N)=O)N(C(=O)c2cc([N+](=O)[O-])cc([N+](=O)[O-])c2C)C3)c1 (stereo partly drawn) | 8.81 |
| CCCCN(Cc1ccccc1)C1CCN(Cc2ccccc2)CC1 | -14.5 |
| COc1ccc(/C=C(/NC(=O)c2ccc([N+](=O)[O-])cc2)C(=O)NC(C)(C)C)cc1 | -10.7 |
| CCOC(=O)C1=C(O)C(=O)NC(c2ccccc2)=C(OC2CCCCC2)C1 | 7.57 |
| CN(C)CCNC(=S)Nc1ccccc1Cl | 4.45 |
| CCNc1sc(S(C)(=O)=O)nc1S(=O)(=O)c1ccc(Cl)cc1 | 18.1 |
| Cc1ccc(CNC(=O)C2(S(=O)(=O)c3ccc(C)cc3)CC2)cc1 | 5.08 |
| COc1ccc(Cl)cc1C(=O)NNC(=O)c1cccc(S(=O)(=O)N(C)C)c1 | 5.46 |
| O=C(NCCc1cccc(F)c1)C1CCCN(c2nc3ccccc3s2)C1 (stereo not drawn) | 10.7 |
| Cc1c(C(=O)N2CCN(c3ccc(C(F)(F)F)cn3)CC2)oc2ccccc12 | 5.58 |
| CC(NC(=O)COC(=O)C1CSC2(C)CCC(=O)N12)C12CC3CC(CC(C3)C1)C2 (stereo not drawn) | 9.61 |
| COc1cc(/C=N\Nc2nc3ccccc3[nH]2)cc(OC)c1OC | -5.36 |

| SMILES | hERG current change (%, negative = inhibition) at 1uM [%] |
| --- | --- |
| COc1nn(CC(=O)N2N=C(C)CC2(O)C(F)F)cc1[N+](=O)[O-] (stereo not drawn) | 4.52 |
| COc1ccc(-c2cc(C(F)(F)F)n3nc(C(=O)NCc4ccco4)cc3n2)cc1OC | 15.1 |
| C/C(=N\N(C)c1ccccc1)c1c(O)[nH]c(=O)[nH]c1=O | 11.9 |
| CCOc1cc(S(=O)(=O)NCC2OCCc3ccccc32)c(OCC)cc1-n1cnnn1 (stereo not drawn) | 4.59 |
| CC1CN(Cc2ccccn2)CCC1=O.Cl (stereo not drawn) | 3.93 |
| O=[N+]([O-])c1ccc2nonc2c1Nc1ccccc1 | 17.4 |
| Cn1nc(C(C)(C)C)cc1C(=O)Nc1nc2c(s1)C(=O)CC(C)(C)C2 | -12.5 |
| COC(=O)c1[nH]c2cccc(OC)c2c1NC(=O)C(C)N1CCC(C)CC1 (stereo not drawn) | -10.1 |
| COC(=O)C1=C(C(=O)OC)C(c2cc([N+](=O)[O-])ccc2O)c2sc(=O)[nH]c2S1 (stereo not drawn) | 6.96 |
| Cc1cc(Br)ccc1-n1[nH]c(C)c(C=Nc2cccc3nsnc23)c1=O | 15.7 |
| CCN(CC)CCOCCOc1ccccc1F | 6.56 |
| Cn1c(CCN2CCCCC2)nc2cc(NS(=O)(=O)c3ccc(F)cc3)ccc21 | -57.5 |
| COc1cccc(NC(=O)COC(=O)c2cccnc2)c1 | 3.46 |
| CC(=O)c1sc2nc(-c3ccc(C)cc3)c3c(c2c1N)CCCC3 | 7.59 |
| COc1ccc(-n2nc(C(=O)Nc3nc4ccc(OC)cc4s3)c3ccccc3c2=O)cc1 | 17.4 |
| COc1cccc(NC(=O)CSc2nc3ccccc3c(=O)n2Cc2cccs2)c1 | 8.49 |
| O=C1NC(=NCc2ccccc2)S/C1=C\c1ccccc1 | 25.6 |
| CCN(CC)S(=O)(=O)c1ccc(C(=O)NNc2nc(-c3ccccc3)c3cc(Br)ccc3n2)cc1 | 16.3 |
| COCCCNC(=O)c1ccc(N(C)S(=O)(=O)c2ccc(OC)cc2)cc1 | -13.5 |
| O=C([C@@H]1CC=C[C@@H]2CCN(C3CC3)C(=O)[C@@H]21)N1CCN(c2ccccc2)CC1 | 11.3 |
| COc1ccc(/C=N/NS(=O)(=O)c2ccc(F)cc2)cc1COc1cc(F)ccc1[N+](=O)[O-] | -19 |

| SMILES | hERG current change (%, negative = inhibition) at 1uM [%] |
| --- | --- |
| CCc1nnc(NC(=O)CSc2nnc(C(C)NC(=O)c3ccccc3)n2C)s1 (stereo not drawn) | 21 |
| Cl.O=C(Cc1ccccn1)Nc1ccccc1 | 12.1 |
| O=S(=O)(Nc1ncccn1)c1ccc(-n2cnnn2)cc1 | 10.6 |
| CC(C)N(Cc1ccccc1)C(=O)CCc1ccccc1 | 10.5 |
| O=C([O-])c1ccc(-[n+]2c(-c3ccccc3)cc(-c3ccccc3)cc2-c2ccccc2)cc1 | 12.9 |
| Cc1ccnc(N/C=C(/NC(=O)c2ccccc2)C(=O)N/N=C\c2ccc(Cl)cc2)n1 | 3.84 |
| CCCCC1=CC2=CC(=O)C(C)(OC(=O)CC)C(=O)C2=CN1CCCCO (stereo not drawn) | 12.9 |
| CCCCC(=O)Nc1cccc(-c2cn3ccsc3n2)c1 | 2.71 |
| CCN(CCn1cccn1)C(=O)c1cccc(OC2CCN(S(C)(=O)=O)CC2)c1 | 7.43 |
| COc1ccc(C)cc1NC(=O)CN(c1ccc(F)cc1)S(C)(=O)=O | 7.3 |
| CCCCNS(=O)(=O)c1ccc(OCC(=O)OC)cc1 | -0.496 |
| CC(C)(C)C(=O)NCCCc1nc2ccccc2n1CCCOc1ccc(Cl)cc1 | -9.5 |
| COC(=O)c1ccc(Oc2nc(NC(C)C)nc(NC(C)C)n2)cc1 | 11.4 |
| CC(OC(=O)CCOc1ccccc1)C(=O)Nc1ccc(Cl)cn1 (stereo not drawn) | 5.07 |
| CCNC(=O)Cn1cc(C(F)(F)F)cc(Cl)c1=O | 11.3 |
| Cc1cccc(C)c1NC(=S)NC1CCCCC1 | 11.7 |
| COc1cc(-c2cc(C(=O)Nc3ccc(S(=O)(=O)NCc4ccco4)cc3)c3ccccc3n2)cc(OC)c1OC | 11.8 |
| CC(=O)Nc1nc(-c2ccccc2)cc(-c2ccco2)c1C#N | 7.82 |
| CCc1nnc(NS(=O)(=O)c2ccc(N=Cc3c(C)[nH]n(-c4ccc(C)cc4)c3=O)cc2)s1 | -3.72 |
| O=C(Nc1ccc(O)cc1)c1ccc2c(c1)C(=O)N(N1C(=O)c3ccccc3C1=O)C2=O | 13.5 |
| CCCNC(=O)COc1ccc2c(=O)c(Oc3ccccc3F)coc2c1 | -38.2 |

| SMILES | hERG current change (%, negative = inhibition) at 1uM [%] |
| --- | --- |
| Cc1cc2c(o1)CC(C)(C)CC2=O | 6.39 |
| C#CCOCCOCCOCCNc1nc(N2CCN(C(=O)[C@H](CCC(=O)O)n3cc(C(N)CO)nn3)CC2)nc(N2CCN(C(=O)[C@H](CCC(=O)O)n3cc(C(N)[C@H](C)CC)nn3)CC2)n1.Cl (stereo partly drawn) | -9.48 |
| CC(C)CNC(=S)NC1CC2CCCC(C1)N2C1CCCCC1 (stereo not drawn) | 16 |
| CC(=O)Oc1ccc2ccc(=O)oc2c1 | 22.7 |
| COc1cc(C(=O)NCC(=O)OCC(=O)Nc2nnc(-c3ccccc3)o2)cc(OC)c1OC | 24.4 |
| CC(C)(C)OC(=O)N1CCCC1C(=O)NC(Cc1ccccc1)C(=O)O (stereo not drawn) (Boc-Pro-Phe-OH; configuration not given here) | 3.88 |
| O=C(c1ccc(COCC(F)(F)F)o1)N1CCCCCC1 | 11.9 |
| COc1c(F)cccc1C1=CC(=O)C[C@H](c2ccc3c(c2)OCO3)C1 | 20.5 |
| FC(F)Sc1ccc(NC(=S)NCc2ccccc2)cc1 | 0.835 |
| Cc1ccc(S(=O)(=O)N2CCC3(CC2)OCCN3S(=O)(=O)c2c(C)cc(C)cc2C)cc1 | 9.32 |
| CN(C)CCCN(C(=O)c1ccco1)c1nc2cc3c(cc2s1)OCO3.Cl | 3.45 |
| CCCCn1c(N)c(N(CC)C(=O)C2CCN(C(=O)c3ccccc3C)CC2)c(=O)[nH]c1=O | 5.2 |
| COCCn1c(COc2cccc(OC)c2)nnc1SCC(=O)NC1CCCC1 | 2.52 |
| O=C(CCc1nnc(CCc2c[nH]c3ccccc23)o1)NC1CCC1 | 8.49 |
| Cn1c(=O)c2c(ncn2CCO)n(C)c1=O | 19.2 |
| O=C(CNc1cc(S(=O)(=O)N2CCOCC2)ccc1NCC1CCCO1)Nc1ccc(F)c(F)c1 (stereo not drawn) | 3.78 |
| O=C1C(C=NCc2ccccn2)=C(O)c2ccccc21 | 2.73 |
| Cc1cccc(N=C2NC(=O)S/C2=C\c2ccco2)c1 | 8.16 |
| COC(=O)c1ccccc1NC(=O)CSc1nnc(-c2cccnc2)n1C | -1.98 |
| C=CCCC(=O)Nc1nc(C)c(-c2csc(Nc3ccc(Cl)cc3)n2)s1 | 16.7 |
| O=[N+]([O-])c1ccc(N2CCNCC2)c(Cl)c1 | 7.65 |
